Test results as given in the supplement of paper PMC11876631.
Numbering of substitutions follows the chain as printed. Numbers in names are those of the source. ± gives the standard deviation of the averaged measurements. Laboratory Escherichia coli strains with one amino-acid change in an essential protein, pooled on minimal glucose agar with carbenicillin or gentamicin at twice the control MIC (plus kanamycin and chloramphenicol for the plasmids), 48 h. Fold change of barcode share against drug-free plates; higher = less susceptible. Active = above 20 in both replicates (the paper's putatively resistant). '<' = one read or none on drug, '>' = one read or none on a drug-free plate. Shares are relative, so most strains fall below 1 when a few take over. Listed are strains with at least 15 reads on both drug-free plates, and hits; most hits rest on fewer reference reads. Replicate rank correlation about 0.5. Edits are read from barcodes.

B1: lipA I22D (protein)
chain: MSKPIVMERGVKYRDADKMALDPVKNVATEREALLRKPEWMKIKLPADSTRIQGIKAAMRKNGLHSVCEEASCPNLAECFNHGTATFMILGAICTRRCPFCDVAHGRPVAPDANEPVKLAQTIADMALRYVVITSVDRDDLRDGGAQHFADCITAIREKSPQIKIETLVPDFRGRMDRALDILTATPPDVFNHNLENVPRIYRQVRPGADYNWSLKLLERFKEAHPEIPTKSGLMVGLGETNEEIIEVMRDLRRHGVTMLTLGQYLQPSRHHLPVQRYVSPDEFDEMKAEALAMGFTHAACGPFVRSSYHADLQAKGMEVK
B2: lipA I22P (protein)
chain: B1 chain with D22P
B3: lipA L76A (protein)
chain: B1 chain with D22I, L76A
B4: lipA L76W (protein)
chain: B1 chain with D22I, L76W
B5: lipA L76Q (protein)
chain: B1 chain with D22I, L76Q
B6: lipA V132A (protein)
chain: B1 chain with D22I, V132A
B7: aroB V40P (protein)
chain: MERIVVTLGERSYPITIASGLFNEPASFLPLKSGEQVMLPTNETLAPLYLDKVRGVLEQAGVNVDSVILPDGEQYKSLAVLDTVFTALLQKPHGRDTTLVALGGGVVGDLTGFAAASYQRGVRFIQVPTTLLSQVDSSVGGKTAVNHPLGKNMIGAFYQPASVVVDLDCLKTLPPRELASGLAEVIKYGIILDGAFFNWLEENLDALLRLDGPAMAYCIRRCCELKAEVVAADERETGLRALLNLGHTFGHAIEAEMGYGNWLHGEAVAAGMVMAARTSERLGQFSSAETQRIITLLKRAGLPVNGPREMSAQAYLPHMLRDKKVLAGEMRLILPLAIGKSEVRSGVSHELVLNAIADCQSA
B8: lipA V132Q (protein)
chain: B1 chain with D22I, V132Q
B9: lipA V132D (protein)
chain: B1 chain with D22I, V132D
B10: lipA I153A (protein)
chain: B1 chain with D22I, I153A
B11: aroB V273A (protein)
chain: B7 chain with P40V, V273A
B12: lipA I153Q (protein)
chain: B1 chain with D22I, I153Q
B13: lipA M235A (protein)
chain: B1 chain with D22I, M235A
B14: lipA M235Q (protein)
chain: B1 chain with D22I, M235Q

Biological target: Escherichia coli (laboratory strain)
Experiment: barcode share on antibiotic plates over drug-free plates; higher = less susceptible
Experimental: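 A pool of E. coli strains, each edited to carry one amino-acid change in an essential protein, was grown for 48 h on minimal glucose agar with or without antibiotic; strain barcodes were sequenced; mean of two replicates.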

[1] = antibiotic: carbenicillin, 2× MIC (3.1 µg/mL)
[2] = antibiotic: gentamicin, 2× MIC (MIC 0.45 µg/mL)

Protein	fold change of barcode share [1]	fold change of barcode share [2]
B1	2.12 ± 1.2	153 [active]
B2	1.47 ± 1.2	55.2 [active]
B3	0.413 ± 0.15	0.00555 ± 0.0057
B4	0.227 ± 0.031	0.00297 ± 0.0026
B5	0.292 ± 0.027	0.0473 ± 0.063
B6	0.306 ± 0.072	
B7	> 22.9 [active]	
B8	0.256 ± 0.084	0.0382 ± 0.024
B9	2.32 ± 0.041	
B10	0.442 ± 0.29	
B11	0.336 ± 0.13	0.00459 ± 0.004
B12	0.265 ± 0.15	
B13	0.325 ± 0.12	0.0416 ± 0.0059
B14	0.48 ± 0.39	0.0417 ± 0.045
